Test results as given in the supplement of paper PMC6206098.
± gives the uncertainty stated by the source. The sequences are guide strands of siRNAs; only the seed at positions 2 to 7 varies.

Legend:
3LL = test: cell viability relative to siNT1 control; higher = less toxic; details: concentration: 10 nM; 96 h; Mus musculus;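 further: Luminescence-based viability of cells reverse transfected in 384-well plates with lipid-complexed siRNAs built on a non-toxic 19mer backbone whose passenger strand carries 2′-O-methyl groups at positions 1 and 2, triplicates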
Procedure: (§1)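 Arrayed screen of 4096 siRNA duplexes, each carrying one of all possible 6mer seeds at guide-strand positions 2-7 in a fixed neutral 19mer scaffold (constant flanks: U at position 1, then ACAUGUAAACCA, plus a 3' AA overhang). The passenger strand is 2'-O-methylated at positions 1-2 so only the guide strand loads into RISC. Duplexes were reverse-transfected at 10 nM with RNAiMAX in triplicate in 384-well plates; viability was read by CellTiter-Glo ATP content 96 h after transfection. Values are % viability normalised to lipid-only wells (HeyA8, H460, M565) or to siNT1 (3LL).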

H460 = test: cell viability relative to lipid-only control; HeyA8 human ovarian and H460 human lung cancer; M565 mouse liver and 3LL mouse lung cancer; siNT1 is a non-toxic control siRNA; higher = less toxic; details: concentration: 10 nM; 96 h; Homo sapiens
Procedure: as §1

HeyA8 = test: as above; details: concentration: 10 nM; 96 h; Homo sapiens
Procedure: as §1

M565 = test: as above; details: concentration: 10 nM; 96 h; Mus musculus
Procedure: as §1
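Wherever cell viability relative to lipid-only control is given: reverse lipid transfection in 384-well plates, in triplicate, of duplexes on a non-toxic 19mer backbone with passenger strand 2′-O-methylated at positions 1 and 2, luminescence viability read-out.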

UAUAGCCACAUGUAAACCAAA
cell viability (3LL): 5.69 ± 0.3%
cell viability (H460): 19.5 ± 1.1%
cell viability (HeyA8): 37.7 ± 3.4%
cell viability (M565): 12.9 ± 2.4%

UAUAGCGACAUGUAAACCAAA
cell viability (3LL): 113 ± 18%
cell viability (H460): 66.2 ± 2.4%
cell viability (HeyA8): 97 ± 11%
cell viability (M565): 96.4 ± 8.8%

UAUAGCUACAUGUAAACCAAA
cell viability (3LL): 68.9 ± 6.1%
cell viability (H460): 43.6 ± 3.8%
cell viability (HeyA8): 64.6 ± 2%
cell viability (M565): 49.5 ± 6.5%

UAUAGGAACAUGUAAACCAAA
cell viability (3LL): 109 ± 9%
cell viability (H460): 70.9 ± 4.2%
cell viability (HeyA8): 91 ± 8.7%
cell viability (M565): 91.6 ± 8.8%

UAUAGGCACAUGUAAACCAAA
cell viability (3LL): 9.98 ± 3.3%
cell viability (H460): 45.5 ± 4%
cell viability (HeyA8): 24.2 ± 2.1%
cell viability (M565): 21.3 ± 6.8%

UAUAGGGACAUGUAAACCAAA
cell viability (3LL): 106 ± 13%
cell viability (H460): 71.3 ± 4.3%
cell viability (HeyA8): 84.6 ± 3.1%
cell viability (M565): 81.9 ± 2.1%

UAUAGGUACAUGUAAACCAAA
cell viability (3LL): 54.8 ± 5.2%
cell viability (H460): 60.9 ± 4.8%
cell viability (HeyA8): 92.2 ± 6.9%
cell viability (M565): 73.8 ± 4.8%

UAUAGUAACAUGUAAACCAAA
cell viability (3LL): 108 ± 11%
cell viability (H460): 73.4 ± 10%
cell viability (HeyA8): 99.6 ± 5.6%
cell viability (M565): 96.5 ± 8%

UAUAGUCACAUGUAAACCAAA
cell viability (3LL): 100 ± 7.5%
cell viability (H460): 77.6 ± 4.8%
cell viability (HeyA8): 101 ± 5.3%
cell viability (M565): 96.5 ± 12%

UAUAGUGACAUGUAAACCAAA
cell viability (3LL): 115 ± 6.8%
cell viability (H460): 81.8 ± 19%
cell viability (HeyA8): 90.3 ± 2%
cell viability (M565): 75.9 ± 6%

UAUAGUUACAUGUAAACCAAA
cell viability (3LL): 110 ± 9.8%
cell viability (H460): 82.6 ± 23%
cell viability (HeyA8): 91.2 ± 7.1%
cell viability (M565): 75.5 ± 23%

UAUAUAAACAUGUAAACCAAA
cell viability (3LL): 99.1 ± 16%
cell viability (H460): 76 ± 15%
cell viability (HeyA8): 98.1 ± 13%
cell viability (M565): 97.9 ± 12%

UAUAUACACAUGUAAACCAAA
cell viability (3LL): 73.8 ± 21%
cell viability (H460): 66.8 ± 1.4%
cell viability (HeyA8): 99 ± 18%
cell viability (M565): 90.4 ± 11%

UAUAUAGACAUGUAAACCAAA
cell viability (3LL): 94.8 ± 21%
cell viability (H460): 64.5 ± 3.4%
cell viability (HeyA8): 98.8 ± 10%
cell viability (M565): 105 ± 15%

UAUAUAUACAUGUAAACCAAA
cell viability (3LL): 42.5 ± 7.9%
cell viability (H460): 86.8 ± 14%
cell viability (HeyA8): 91.7 ± 12%
cell viability (M565): 101 ± 6.3%

UAUAUCAACAUGUAAACCAAA
cell viability (3LL): 99 ± 20%
cell viability (H460): 69.8 ± 6.8%
cell viability (HeyA8): 99.7 ± 8.2%
cell viability (M565): 98.9 ± 7.8%

UAUAUCCACAUGUAAACCAAA
cell viability (3LL): 25.6 ± 3.3%
cell viability (H460): 42.4 ± 7.3%
cell viability (HeyA8): 18.9 ± 0.81%
cell viability (M565): 40.8 ± 10%

UAUAUCGACAUGUAAACCAAA
cell viability (3LL): 99 ± 14%
cell viability (H460): 71.7 ± 14%
cell viability (HeyA8): 98.7 ± 9.7%
cell viability (M565): 74.8 ± 8.1%

UAUAUCUACAUGUAAACCAAA
cell viability (3LL): 90.8 ± 12%
cell viability (H460): 86.6 ± 15%
cell viability (HeyA8): 91.6 ± 15%
cell viability (M565): 85.4 ± 11%

UAUAUGAACAUGUAAACCAAA
cell viability (3LL): 106 ± 15%
cell viability (H460): 59.6 ± 2.3%
cell viability (HeyA8): 98.6 ± 9.7%
cell viability (M565): 89 ± 6.5%

UAUAUGCACAUGUAAACCAAA
cell viability (3LL): 8.85 ± 0.67%
cell viability (H460): 32.4 ± 1%
cell viability (HeyA8): 11.3 ± 0.78%
cell viability (M565): 70.5 ± 22%

UAUAUGGACAUGUAAACCAAA
cell viability (3LL): 73.4 ± 18%
cell viability (H460): 87.8 ± 24%
cell viability (HeyA8): 77.9 ± 13%
cell viability (M565): 98.5 ± 1.6%

UAUAUGUACAUGUAAACCAAA
cell viability (3LL): 39.5 ± 11%
cell viability (H460): 68.7 ± 4.1%
cell viability (HeyA8): 71.7 ± 3.2%
cell viability (M565): 78.1 ± 4.6%

UAUAUUAACAUGUAAACCAAA
cell viability (3LL): 103 ± 22%
cell viability (H460): 85.3 ± 19%
cell viability (HeyA8): 97.2 ± 6.8%
cell viability (M565): 101 ± 20%

UAUAUUCACAUGUAAACCAAA
cell viability (3LL): 71.6 ± 17%
cell viability (H460): 82.7 ± 22%
cell viability (HeyA8): 89.8 ± 18%
cell viability (M565): 54.8 ± 1.6%

UAUAUUGACAUGUAAACCAAA
cell viability (3LL): 106 ± 18%
cell viability (H460): 68.1 ± 5.6%
cell viability (HeyA8): 93.4 ± 8.6%
cell viability (M565): 77.5 ± 7.2%

UAUAUUUACAUGUAAACCAAA
cell viability (3LL): 93.5 ± 17%
cell viability (H460): 66.9 ± 11%
cell viability (HeyA8): 88.7 ± 14%
cell viability (M565): 86.6 ± 3.8%

UAUCAAAACAUGUAAACCAAA
cell viability (3LL): 113 ± 14%
cell viability (H460): 60.2 ± 4.5%
cell viability (HeyA8): 104 ± 0.99%
cell viability (M565): 76 ± 10%
